According to the supplement of paper PMC3334620:
Whole data set: some 33,000 sequences, median “E-score (-0.5 to 0.5)” near -0.013, cut for the highest 2% near 0.3. The list shows a part of the results.

Target: T1, Msn1 (UniProt P22148)
T1 sequence: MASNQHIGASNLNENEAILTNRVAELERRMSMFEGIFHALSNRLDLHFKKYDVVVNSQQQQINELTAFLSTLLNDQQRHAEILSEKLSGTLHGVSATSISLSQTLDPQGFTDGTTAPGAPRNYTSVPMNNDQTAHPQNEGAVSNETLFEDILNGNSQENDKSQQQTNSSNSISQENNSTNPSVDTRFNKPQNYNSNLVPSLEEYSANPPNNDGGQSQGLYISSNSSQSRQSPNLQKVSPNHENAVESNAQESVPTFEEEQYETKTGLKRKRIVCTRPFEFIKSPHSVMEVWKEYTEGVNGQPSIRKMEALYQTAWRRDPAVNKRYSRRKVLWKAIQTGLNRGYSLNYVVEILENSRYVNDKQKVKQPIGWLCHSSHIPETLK
Experiment: PBM E-score (8-mer binding enrichment) (E-score (-0.5 to 0.5)); higher = stronger / more preferred TF binding; most listed sequences are background and not binding sites
Conditions: protein concentration: 200 nM; construct: GST-full length
In short: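 GST-tagged yeast TFs (full-length or DNA-binding domain) were made by PURExpress in vitro transcription/translation and applied at about 100-200 nM to universal all-10-mer Agilent arrays. The arrays were made double-stranded by primer extension, on fresh or once-stripped slides. Bound protein was detected with fluorescent anti-GST, and scans were normalised with masliner. Each ungapped eight-base word, pooled with its reverse complement, received an E-score (modified Wilcoxon-Mann-Whitney statistic) from the Universal PBM Analysis Suite.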

| Sequence | PBM E-score |
| --- | --- |
| CGTGTTAA | -0.00332 |
| CATCCGAG | 0.0778 |
| CGTGCCAC | -0.0683 |
| GCTTTCAA | 0.079 |
| CGGCTACG | -0.306 |
| ACAAAGGG | 0.125 |
| GAGTCTAA | -0.0703 |
| CGACAGAA | 0.167 |
| ATGTTTAA | -0.0496 |
| AGAGAACG | -0.0915 |
| AGAAGTCA | 0.06 |
| ATACTGTC | 0.112 |
| AGGCGCGC | -0.0129 |
| CTCCTGCA | -0.33 |
| GACAGAGC | 0.0447 |
| AGGGAAAA | 0.0219 |
| AAAAAGGG | 0.00357 |
| AGAGGGTC | -0.179 |
| AACTGGGA | -0.00988 |
| GCTACCCA | -0.156 |
| CTGCATTC | -0.109 |
| AAGTCGTC | -0.0133 |

| Sequence | PBM E-score |
| --- | --- |
| CAACACAC | 0.134 |
| TACCCCTA | -0.142 |
| CGCAAGCG | -0.164 |
| GGTCGGAC | 0.1 |
| AGCCGTTC | -0.278 |
| ATATCAAA | 0.0618 |
| TAGATCTA | -0.014 |
| AGTGTAGA | -0.102 |
| ACTCGATG | 0.0509 |
| CGCAGGGA | -0.161 |
| CAGGCCTG | 0.0727 |
| CCTCAGGA | 0.0452 |
| ATCTAGAA | 0.0372 |
| CCTTCTGA | -0.104 |
| ACTCTTTC | -0.00101 |
| GCTCGCAA | 0.076 |
| AAAACCCA | 0.0857 |
| ACTGGGTG | -0.104 |
| CCCCAAAA | 0.209 |
| ATATACGG | 0.147 |
| CTTCGTAA | 0.0853 |
| CCTAATAA | 0.28 |

| Sequence | PBM E-score |
| --- | --- |
| CATCTAGG | -0.109 |
| ATGATAAA | 0.194 |
| ATAAGCCC | -0.245 |
| GGATACGA | -0.00578 |
| AAGCCGTA | -0.0189 |
| GTGGGTCA | -0.23 |
| AAGGCATA | -0.111 |
| AAGGCAGT | -0.0959 |
| GATATCGC | 0.014 |
| ACGCATGG | -0.138 |
| ACGTACGG | 0.0575 |
| AGACCGAA | 0.0537 |
| GAATAGAA | 0.102 |
| CTGCTAAG | -0.166 |
| CGAGGGCA | -0.197 |
| GCACACGA | 0.00337 |
| ATCGCTAA | 0.0831 |
| ACACAACG | -0.017 |
| ATCGGTGC | 0.124 |
| AATCATTC | 0.0947 |
| ACTAGACC | 0.0586 |
| AACTCGCC | -0.0314 |

| Sequence | PBM E-score |
| --- | --- |
| CACCTGTA | -0.15 |
| GGAGGCAC | -0.0207 |
| ACTTACCG | 0.141 |
| ATACAAAG | 0.254 |
| CTAGGGTC | -0.211 |
| CACGGGCG | -0.102 |
| AGTTGCTA | 0.0852 |
| CAGACACA | 0.28 |
| ATCGGTAA | -0.0108 |
| AGGCACAG | -0.14 |
| AGCCTTGA | -0.0272 |
| CGAGGCAA | 0.172 |
| CGAATAAA | 0.309 |
| TCACTCGA | 0.144 |
| AACAGCGT | 0.0185 |
| AATCAGCT | 0.0707 |
| CGTGACGC | 0.178 |
| CAAACCCC | -0.177 |
| ATTAACTG | 0.105 |
| GATCGGAA | 0.123 |
